# Substitutions are numbered along the chain they refer to. Numbers in names are those of the source. These are yes or no findings as the source states them, for the method shown. For some assays here: Binding seen in cells or lysates may run through a third protein. Some results given as binding are weak or reduced against the parent protein; the word gives no strength. Where a sequence is shown, tags or fusion partners need not be part of it.
# T1: EGFP-Atg11 (full-length yeast Atg11) (yeast (S. cerevisiae)) (UniProt Q12527)
# T1 sequence: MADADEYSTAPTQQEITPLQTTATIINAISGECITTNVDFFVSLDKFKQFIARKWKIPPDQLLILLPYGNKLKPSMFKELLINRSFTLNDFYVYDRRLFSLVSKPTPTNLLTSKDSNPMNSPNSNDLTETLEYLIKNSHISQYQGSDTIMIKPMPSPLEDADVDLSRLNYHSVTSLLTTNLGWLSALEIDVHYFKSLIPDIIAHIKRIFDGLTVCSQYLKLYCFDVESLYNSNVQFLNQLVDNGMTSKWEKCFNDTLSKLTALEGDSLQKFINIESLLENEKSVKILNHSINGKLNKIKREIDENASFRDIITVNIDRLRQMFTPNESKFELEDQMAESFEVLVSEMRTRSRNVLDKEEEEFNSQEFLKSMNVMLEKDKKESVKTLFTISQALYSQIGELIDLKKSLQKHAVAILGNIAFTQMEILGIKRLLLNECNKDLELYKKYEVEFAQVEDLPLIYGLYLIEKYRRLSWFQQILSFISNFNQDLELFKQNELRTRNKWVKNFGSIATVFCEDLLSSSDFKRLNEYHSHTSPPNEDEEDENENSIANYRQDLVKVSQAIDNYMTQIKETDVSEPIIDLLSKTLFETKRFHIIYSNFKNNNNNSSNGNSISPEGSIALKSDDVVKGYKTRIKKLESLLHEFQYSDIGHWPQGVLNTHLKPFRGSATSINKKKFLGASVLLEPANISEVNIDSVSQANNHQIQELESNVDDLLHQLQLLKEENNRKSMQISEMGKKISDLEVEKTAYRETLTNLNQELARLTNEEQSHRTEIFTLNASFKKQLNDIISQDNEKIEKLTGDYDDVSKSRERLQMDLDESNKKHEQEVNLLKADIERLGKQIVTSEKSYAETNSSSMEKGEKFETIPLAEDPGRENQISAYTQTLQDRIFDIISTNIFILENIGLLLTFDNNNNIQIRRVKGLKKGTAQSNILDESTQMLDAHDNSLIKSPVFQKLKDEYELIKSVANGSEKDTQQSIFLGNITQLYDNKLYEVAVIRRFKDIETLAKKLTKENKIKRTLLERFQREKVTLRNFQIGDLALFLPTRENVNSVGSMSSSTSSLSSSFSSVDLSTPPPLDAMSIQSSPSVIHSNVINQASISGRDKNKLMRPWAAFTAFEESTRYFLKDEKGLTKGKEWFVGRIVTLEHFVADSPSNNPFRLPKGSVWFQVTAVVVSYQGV
# T2: Atg9-GFP, wild type (S. cerevisiae) (UniProt Q12142)
# T2 sequence: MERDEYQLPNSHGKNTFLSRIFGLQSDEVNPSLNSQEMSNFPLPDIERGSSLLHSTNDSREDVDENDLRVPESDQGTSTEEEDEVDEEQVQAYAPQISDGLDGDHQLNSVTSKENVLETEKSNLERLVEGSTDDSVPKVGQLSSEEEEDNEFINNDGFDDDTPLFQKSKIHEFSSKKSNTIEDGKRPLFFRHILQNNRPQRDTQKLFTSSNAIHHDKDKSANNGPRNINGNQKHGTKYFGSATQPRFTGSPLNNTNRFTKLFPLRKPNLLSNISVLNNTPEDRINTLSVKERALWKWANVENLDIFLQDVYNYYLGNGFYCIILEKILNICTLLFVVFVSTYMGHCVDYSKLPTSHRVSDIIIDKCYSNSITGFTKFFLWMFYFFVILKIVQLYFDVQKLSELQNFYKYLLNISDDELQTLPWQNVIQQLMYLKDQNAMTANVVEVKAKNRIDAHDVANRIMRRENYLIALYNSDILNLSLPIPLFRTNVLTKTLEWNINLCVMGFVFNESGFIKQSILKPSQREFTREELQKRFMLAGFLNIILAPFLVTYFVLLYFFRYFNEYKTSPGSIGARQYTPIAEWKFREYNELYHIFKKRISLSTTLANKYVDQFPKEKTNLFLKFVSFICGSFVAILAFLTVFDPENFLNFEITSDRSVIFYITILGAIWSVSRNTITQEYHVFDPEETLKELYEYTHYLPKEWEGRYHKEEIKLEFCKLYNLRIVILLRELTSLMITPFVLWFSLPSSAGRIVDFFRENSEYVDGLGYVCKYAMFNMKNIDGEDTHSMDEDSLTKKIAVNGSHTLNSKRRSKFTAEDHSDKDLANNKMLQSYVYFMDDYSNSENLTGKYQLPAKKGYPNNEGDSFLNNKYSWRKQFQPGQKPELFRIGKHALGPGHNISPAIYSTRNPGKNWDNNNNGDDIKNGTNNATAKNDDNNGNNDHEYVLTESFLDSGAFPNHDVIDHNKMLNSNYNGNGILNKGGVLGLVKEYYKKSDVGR
# T3: Atg9-M1+2-GFP (S. cerevisiae) (UniProt Q12142)
# T3 sequence: T2 sequence with L164A, F165A, L188A, F189A
# B1: Atg9-NTD-(1–255)-mCherry M1 (L164A/F165A) (domain or fragment, UniProt Q12142 1-255)
# chain: MERDEYQLPNSHGKNTFLSRIFGLQSDEVNPSLNSQEMSNFPLPDIERGSSLLHSTNDSREDVDENDLRVPESDQGTSTEEEDEVDEEQVQAYAPQISDGLDGDHQLNSVTSKENVLETEKSNLERLVEGSTDDSVPKVGQLSSEEEEDNEFINNDGFDDDTPAAQKSKIHEFSSKKSNTIEDGKRPLFFRHILQNNRPQRDTQKLFTSSNAIHHDKDKSANNGPRNINGNQKHGTKYFGSATQPRFTGSPLNNT
# B2: Atg9-NTD-(1–255)-mCherry M2 (L188A/F189A) (domain or fragment, UniProt Q12142 1-255)
# chain: B1 chain with A164L, A165F, L188A, F189A
# B3: mCh-Atg11 (protein, UniProt Q12527 1-1178)
# chain: T1 sequence
# B4: Atg9-NTD-(1–255)-mCherry M1+M2 (L164A/F165A/L188A/F189A) (domain or fragment, UniProt Q12142 1-255)
# chain: B1 chain with L188A, F189A
# What was measured:
# [1] = target: T1, EGFP-Atg11 (full-length yeast Atg11) (yeast (S. cerevisiae)); experiment: ITC; Atg9-NTD (300 to 500 μM, syringe) into EGFP-Atg11 (50 to 100 μM, cell); 25 °C; 20 mM Tris pH 7.4, 300 mM NaCl; single binding site; two replicates; both purified
# [2] = target: T2, Atg9-GFP, wild type (S. cerevisiae); experiment: co-IP; yeast lysates (25 mM Tris-HCl pH 7.4, 150 mM NaCl, 0.2% NP-40) on GFP-trap magnetic agarose beads overnight at 4 °C; Western blot with anti-Atg11 and anti-GFP
# [3] = target: T3, Atg9-M1+2-GFP (S. cerevisiae); experiment: as above
# [4] = target: T1, EGFP-Atg11 (full-length yeast Atg11) (yeast (S. cerevisiae)); experiment: microscopy-based protein–protein interaction (MBPPI) assay; GFP-Trap beads coated with 10 μM EGFP-Atg11, 1 μM Atg9-NTD-(1–255)-mCherry in solution; 20 mM Tris pH 7.4, 300 mM NaCl; room temperature; confocal imaging, mCherry signal normalised to EGFP; both purified
binder,measurement,setting,value
B1,binding,[1],binds weakly
B2,binding,[1],binds weakly
B3,binding,[2],binds
same,binding,[3],no binding
B4,binding,[4],no binding (tested: 1 μM)

# Reference: PMC8814668, “Mechanism of Atg9 recruitment by Atg11 in the cytoplasm-to-vacuole targeting pathway” (The Journal of Biological Chemistry, 2022)
